# Measured values reported in article PMC12820563, “FoxP3 forms a head-to-head dimer in vivo and stabilizes its multimerization on adjacent microsatellites”.
# The list shows a part of the results.
# Target: T1, MBP-FoxP1dN (Mus musculus, UniProt P58462 326-579)
# T1 sequence: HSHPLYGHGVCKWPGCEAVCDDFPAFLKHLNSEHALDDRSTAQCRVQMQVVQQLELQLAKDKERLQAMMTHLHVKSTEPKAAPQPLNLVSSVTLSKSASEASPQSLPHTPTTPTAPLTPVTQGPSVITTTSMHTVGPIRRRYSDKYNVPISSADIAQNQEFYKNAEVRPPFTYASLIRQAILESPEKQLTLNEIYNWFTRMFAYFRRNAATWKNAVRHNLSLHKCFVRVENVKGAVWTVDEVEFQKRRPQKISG
# Test: PD-seq (MBP pull-down with sequencing); 20 mM Tris-HCl pH 7.5, 100 mM NaCl, 1.5 mM MgCl2, 0.4 uM protein, 0.1 uM dsDNA library, 30 min, room temperature, amylose pull-down; high values mean tight binding
# Conditions: protein: recombinant; tags: His6-MBP; chain copies: 2; dsDNA, one strand shown
# Method in brief: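 Binding is given as reads-per-million enrichment, pull-down over input, with replicates pooled. The bait was an N-terminus-lacking mouse FoxP3 or FoxP1 fragment with a His6-MBP tag, expressed in E. coli and used at 0.4 µM with 0.1 µM Klenow-filled degenerate double-stranded DNA library for 30 min at room temperature in Tris pH 7.5 buffer with NaCl and MgCl2. Amylose resin pull-down with three washes was followed by proteinase K release, PCR barcoding and Illumina sequencing.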
row,Sequence,binding signal
1,GATGATTGTTCTCCCAGCTGATGAATTGATCGCTTCGAGTAAACAAATTTTCCTAATCTTTCTGTTCAAGCGCCATCTAC,0.945 RPM ratio (pull-down/input)
2,GATGATTGTTCTCCCAGCTGATGAATTTCCATAGTCGAGTAAACAAATTTTCCTAATCTTTCTGTTCAAGCGCCATCTAC,0.784 RPM ratio (pull-down/input)
3,GATGATTGTTCTCCCAGCTGATGAATTGGTGGGGTCGAGTAAACAAATTTTCCTAATCTTTCTGTTCAAGCGCCATCTAC,0.817 RPM ratio (pull-down/input)
4,GATGATTGTTCTCCCAGCTGATGAATTTTGAATGTCGAGTAAACAAATTTTCCTAATCTTTCTGTTCAAGCGCCATCTAC,0.964 RPM ratio (pull-down/input)
5,GATGATTGTTCTCCCAGCTGATGAATTCCCAACGTCGAGTAAACAAATTTTCCTAATCTTTCTGTTCAAGCGCCATCTAC,0.784 RPM ratio (pull-down/input)
6,GATGATTGTTCTCCCAGCTGATGAATTACGGCGGTCGAGTAAACAAATTTTCCTAATCTTTCTGTTCAAGCGCCATCTAC,0.83 RPM ratio (pull-down/input)
7,GATGATTGTTCTCCCAGCTGATGAATTATAACCTTCGAGTAAACAAATTTTCCTAATCTTTCTGTTCAAGCGCCATCTAC,1.05 RPM ratio (pull-down/input)
8,GATGATTGTTCTCCCAGCTGATGAATTCCCTGGTTCGAGTAAACAAATTTTCCTAATCTTTCTGTTCAAGCGCCATCTAC,0.795 RPM ratio (pull-down/input)
9,GATGATTGTTCTCCCAGCTGATGAATTGCACCGTTCGAGTAAACAAATTTTCCTAATCTTTCTGTTCAAGCGCCATCTAC,1.1 RPM ratio (pull-down/input)
10,GATGATTGTTCTCCCAGCTGATGAATTAGCTAACTCGAGTAAACAAATTTTCCTAATCTTTCTGTTCAAGCGCCATCTAC,0.866 RPM ratio (pull-down/input)
11,GATGATTGTTCTCCCAGCTGATGAATTGGTGCGGTCGAGTAAACAAATTTTCCTAATCTTTCTGTTCAAGCGCCATCTAC,0.845 RPM ratio (pull-down/input)
12,GATGATTGTTCTCCCAGCTGATGAATTTGCAATATCGAGTAAACAAATTTTCCTAATCTTTCTGTTCAAGCGCCATCTAC,1.34 RPM ratio (pull-down/input)
13,GATGATTGTTCTCCCAGCTGATGAATTTAGAGAGTCGAGTAAACAAATTTTCCTAATCTTTCTGTTCAAGCGCCATCTAC,0.988 RPM ratio (pull-down/input)
14,GATGATTGTTCTCCCAGCTGATGAATTGTAGTGATCGAGTAAACAAATTTTCCTAATCTTTCTGTTCAAGCGCCATCTAC,1.15 RPM ratio (pull-down/input)
15,GATGATTGTTCTCCCAGCTGATGAATTTACGTGCTCGAGTAAACAAATTTTCCTAATCTTTCTGTTCAAGCGCCATCTAC,1.12 RPM ratio (pull-down/input)
16,GATGATTGTTCTCCCAGCTGATGAATTGAAGACTTCGAGTAAACAAATTTTCCTAATCTTTCTGTTCAAGCGCCATCTAC,0.809 RPM ratio (pull-down/input)
17,GATGATTGTTCTCCCAGCTGATGAATTTCTAATCTCGAGTAAACAAATTTTCCTAATCTTTCTGTTCAAGCGCCATCTAC,0.82 RPM ratio (pull-down/input)
18,GATGATTGTTCTCCCAGCTGATGAATTCCCCAGCTCGAGTAAACAAATTTTCCTAATCTTTCTGTTCAAGCGCCATCTAC,0.738 RPM ratio (pull-down/input)
19,GATGATTGTTCTCCCAGCTGATGAATTTAGAGCTTCGAGTAAACAAATTTTCCTAATCTTTCTGTTCAAGCGCCATCTAC,0.869 RPM ratio (pull-down/input)
20,GATGATTGTTCTCCCAGCTGATGAATTCAACGCCTCGAGTAAACAAATTTTCCTAATCTTTCTGTTCAAGCGCCATCTAC,0.907 RPM ratio (pull-down/input)

row,Sequence,binding signal
1,GATGATTGTTCTCCCAGCTGATGAATTGGGTGCCTCGAGTAAACAAATTTTCCTAATCTTTCTGTTCAAGCGCCATCTAC,0.905 RPM ratio (pull-down/input)
2,GATGATTGTTCTCCCAGCTGATGAATTTCTTGTCTCGAGTAAACAAATTTTCCTAATCTTTCTGTTCAAGCGCCATCTAC,0.875 RPM ratio (pull-down/input)
3,GATGATTGTTCTCCCAGCTGATGAATTAATACTATCGAGTAAACAAATTTTCCTAATCTTTCTGTTCAAGCGCCATCTAC,1.09 RPM ratio (pull-down/input)
4,GATGATTGTTCTCCCAGCTGATGAATTATACTATTCGAGTAAACAAATTTTCCTAATCTTTCTGTTCAAGCGCCATCTAC,1.07 RPM ratio (pull-down/input)
5,GATGATTGTTCTCCCAGCTGATGAATTCGTAGACTCGAGTAAACAAATTTTCCTAATCTTTCTGTTCAAGCGCCATCTAC,0.816 RPM ratio (pull-down/input)
6,GATGATTGTTCTCCCAGCTGATGAATTACTGACGTCGAGTAAACAAATTTTCCTAATCTTTCTGTTCAAGCGCCATCTAC,1.02 RPM ratio (pull-down/input)
7,GATGATTGTTCTCCCAGCTGATGAATTGACATAGTCGAGTAAACAAATTTTCCTAATCTTTCTGTTCAAGCGCCATCTAC,1.25 RPM ratio (pull-down/input)
8,GATGATTGTTCTCCCAGCTGATGAATTATAGTGATCGAGTAAACAAATTTTCCTAATCTTTCTGTTCAAGCGCCATCTAC,1.04 RPM ratio (pull-down/input)
9,GATGATTGTTCTCCCAGCTGATGAATTTCCTAGATCGAGTAAACAAATTTTCCTAATCTTTCTGTTCAAGCGCCATCTAC,0.852 RPM ratio (pull-down/input)
10,GATGATTGTTCTCCCAGCTGATGAATTTTCGCCATCGAGTAAACAAATTTTCCTAATCTTTCTGTTCAAGCGCCATCTAC,1.05 RPM ratio (pull-down/input)
11,GATGATTGTTCTCCCAGCTGATGAATTGGACTGCTCGAGTAAACAAATTTTCCTAATCTTTCTGTTCAAGCGCCATCTAC,0.752 RPM ratio (pull-down/input)
12,GATGATTGTTCTCCCAGCTGATGAATTGTAACCGTCGAGTAAACAAATTTTCCTAATCTTTCTGTTCAAGCGCCATCTAC,1.05 RPM ratio (pull-down/input)
13,GATGATTGTTCTCCCAGCTGATGAATTTCTCGCTTCGAGTAAACAAATTTTCCTAATCTTTCTGTTCAAGCGCCATCTAC,0.933 RPM ratio (pull-down/input)
14,GATGATTGTTCTCCCAGCTGATGAATTTTGTGCGTCGAGTAAACAAATTTTCCTAATCTTTCTGTTCAAGCGCCATCTAC,1.12 RPM ratio (pull-down/input)
15,GATGATTGTTCTCCCAGCTGATGAATTCCGCGAGTCGAGTAAACAAATTTTCCTAATCTTTCTGTTCAAGCGCCATCTAC,0.794 RPM ratio (pull-down/input)
16,GATGATTGTTCTCCCAGCTGATGAATTGATTCGCTCGAGTAAACAAATTTTCCTAATCTTTCTGTTCAAGCGCCATCTAC,0.933 RPM ratio (pull-down/input)
17,GATGATTGTTCTCCCAGCTGATGAATTAAGTTATTCGAGTAAACAAATTTTCCTAATCTTTCTGTTCAAGCGCCATCTAC,1.16 RPM ratio (pull-down/input)
18,GATGATTGTTCTCCCAGCTGATGAATTCTGAAATTCGAGTAAACAAATTTTCCTAATCTTTCTGTTCAAGCGCCATCTAC,0.893 RPM ratio (pull-down/input)
19,GATGATTGTTCTCCCAGCTGATGAATTGCACATCTCGAGTAAACAAATTTTCCTAATCTTTCTGTTCAAGCGCCATCTAC,1.21 RPM ratio (pull-down/input)
20,GATGATTGTTCTCCCAGCTGATGAATTGATGGGATCGAGTAAACAAATTTTCCTAATCTTTCTGTTCAAGCGCCATCTAC,0.903 RPM ratio (pull-down/input)
